In the RNAGym collection of RNA variant scans (doi:10.7554/elife.90254):
Read counts are not given, so values of variants with three or more changes are uncertain.

B1: LINE1-full (parent)
chain: UACGUAGGUGGUUUUCCCCUGAUAGUGCUAAGGGGGCCUGGAAGUUUGGACUGGGCAGAGCUCAACACAGCGUGGCAAAGUGGCUGUGGCUAGACUGCCUCUCUGGAUUCCUCGUCACUCAGCAGGGCAUCUCUGAGAGAAAUGCC

Variants of: B1
Experiment: self-cleavage, relative activity (ratio to wild type); higher = more cleavage; in vitro, sequencing; the parent is a self-cleaving ribozyme
With A43G G72C U81C A138U U143C the self-cleavage was 0. Variant A43G C95U A117G U119C A141G has a self-cleavage of 0.17. For A42G U102A A141G, the self-cleavage was 2.17. Variant A42U U52C U104C G144A has a self-cleavage of 0.94. A43G A77G A141G U143C gave a self-cleavage of 1.34. Work on U39C C71U U100C yielded a self-cleavage of 1.1. In the case of A42U A69U U104A, the self-cleavage is reported as 0.02. In the case of A43G A69G U96A, the self-cleavage is reported as 0.07. A42G U115A C123U showed a self-cleavage of 1.53. For A43G A50G U52G U96A, the self-cleavage was 0. A42G A57G C61A U115A showed a self-cleavage of 0.07. For A42G A64U U85C, the self-cleavage was 0.14. Variant G40A U130C A142G has a self-cleavage of 1.36. A42G U130C A138G showed a self-cleavage of 1.12. With A42U U102C A141G the self-cleavage was 0.86. With A42G A92G U96A U115C the self-cleavage was 0. With U39C U104A U132A the self-cleavage was 0.32. With A42G A77G U143A the self-cleavage was 2.51. For U39C U45A U62C U73C G74A U100C A138G, the self-cleavage was 0. With A43G A117U A138G the self-cleavage was 2.06. For A43G G83A U109A A117C A141U, the self-cleavage was 1.48. In the case of A43C A69U A77G A92G, the self-cleavage is reported as 0.77. Variant U39G A42U U81A has a self-cleavage of 1.7. Variant A42G U52A G89A has a self-cleavage of 0.05. With U39G U46C U81A the self-cleavage was 2.39. G40A A79G A107U U112A showed a self-cleavage of 1.12. For A42G A50G U134C, the self-cleavage was 0.95. Variant A43G U47C U73C A141U has a self-cleavage of 1.15. With A42G A43G G88A A129G A142C the self-cleavage was 0.12. Work on A42G U108C U119C U134A yielded a self-cleavage of 2.3. With A42G U87A A117G the self-cleavage was 0. G41U A64U C146U showed a self-cleavage of 0.38. G40A A59G U100A U112C gave a self-cleavage of 0.08. Variant U39C U45C U81A has a self-cleavage of 0.06. With A42G U47C A129G the self-cleavage was 0. Work on U39C U87A A121G C133A yielded a self-cleavage of 0.15. With U39C U108C U134A the self-cleavage was 1.34. For A42G A77G A140U, the self-cleavage was 2.12. A43G U46A U96C U102C A140C showed a self-cleavage of 0. In the case of A43G U52A A59G A141G, the self-cleavage is reported as 0.03. U39C U108A U130C gave a self-cleavage of 0.71. With A43G A59U C113U U132C the self-cleavage was 0.83. In the case of A43G U47A A78U A117U G127A U130A, the self-cleavage is reported as 1.97. In the case of U39G U62C A94G, the self-cleavage is reported as 0.15. Work on U39C U100A A129G yielded a self-cleavage of 0.48. A42G G58U A129G gave a self-cleavage of 0.05. In the case of U39C U46C U52A U115C A141G, the self-cleavage is reported as 1.2. With A43G U45C U81A the self-cleavage was 0.85. In the case of G40A U87A A124G A140U, the self-cleavage is reported as 0.06. G41A A77G U91C U130C U132C gave a self-cleavage of 0. G40A C98U A140G U143C showed a self-cleavage of 0.12. In the case of A43G G53A A69U A107G, the self-cleavage is reported as 0.05. U39C U109C A124U A136U showed a self-cleavage of 1.5. A42G C99U A142C showed a self-cleavage of 1.09. In the case of A43G A78G A138G A142G, the self-cleavage is reported as 1.53. A43C A57G U143C gave a self-cleavage of 0.95. U39C A79U G86A A92U U96A U143A gave a self-cleavage of 0.03. A43G U52A G74A A79G C84A U85C showed a self-cleavage of 0.13. For A43G A57U A64U, the self-cleavage was 0.06. For A43G G49A C95A A140U, the self-cleavage was 0.04. Work on U39C A77G U109C A124U yielded a self-cleavage of 2.8. For A43G A79U U87A A138G G139U, the self-cleavage was 0.04. With U39C U87C C111U the self-cleavage was 0.1. Variant U39C U119C A140G has a self-cleavage of 0. Variant A42G U73C U87A has a self-cleavage of 0.32. U39G A43G A79G G126A showed a self-cleavage of 1.16. In the case of U39G A42G U132A, the self-cleavage is reported as 1.24. For A43G G72A U143C, the self-cleavage was 1.92. Work on U39C A79G A121U yielded a self-cleavage of 1.37. A43G G93U A141G showed a self-cleavage of 0.07. In the case of G41U U45G U85A A136U, the self-cleavage is reported as 0.03. U39C A92U G93A gave a self-cleavage of 0.04. For A42U U62C U85A U115C A121U, the self-cleavage was 0. Work on G41U C61U A117U A124G A136G C145G yielded a self-cleavage of 0. Work on A43G A65G A94G A124U A129U yielded a self-cleavage of 0. A43G U46A U85C gave a self-cleavage of 0.12. Variant U39C U62A A64U A78G U100C has a self-cleavage of 0. Work on U39C U130C C145G yielded a self-cleavage of 1.57. With U39C U46C U134A the self-cleavage was 0.82. For A42G U119C A141G, the self-cleavage was 2.4. For U39C U46C G55A A59G, the self-cleavage was 0.08. U39C U52A C84U A140G gave a self-cleavage of 0.1. A43G U52A U100A U115C C123U gave a self-cleavage of 1.73. G41A A94U U119A gave a self-cleavage of 0.35. Variant U39C A136G U143A has a self-cleavage of 0.43. A42G A67U U108A showed a self-cleavage of 0.07. With A43G G86A U119C the self-cleavage was 0.06. U39C U46C A64G showed a self-cleavage of 0. In the case of A43G A64G U112C C113U C128U, the self-cleavage is reported as 0.19. For A42G C113U A141G, the self-cleavage was 1.44. In the case of A42G U62C G125A A136U, the self-cleavage is reported as 0.03. In the case of A42U A107G A129U, the self-cleavage is reported as 1.33. G41U A94G A140G showed a self-cleavage of 0.04. A43G G72A A129G gave a self-cleavage of 0.57. For A42G U46C U62A U109A, the self-cleavage was 0.11. A42G G55A A77G showed a self-cleavage of 0.39. U39C U52C A64U G75A gave a self-cleavage of 0.08. For A43G A57U U132C, the self-cleavage was 0.18. A42U A59G U102C A136G showed a self-cleavage of 0.1. G41A U62C U112C showed a self-cleavage of 0.06. Work on A43G G54A A59G yielded a self-cleavage of 0.09. Work on U39C U100C G127U A142G yielded a self-cleavage of 2.71. Work on A42G A43G U45A U100C yielded a self-cleavage of 1.24. A42U U46C U62C A79G A117U showed a self-cleavage of 0.16. G40A A77U U81C showed a self-cleavage of 0.94. A42G A59G U102C A121G showed a self-cleavage of 0. With A43G A59G G82A A142G the self-cleavage was 0.08. Variant A42G A117C C123A has a self-cleavage of 0.61. Variant A43G C66U A67G C68U A107G U108C has a self-cleavage of 0.2. In the case of G41U U46C A50G, the self-cleavage is reported as 1.44. A43G A65G A138G showed a self-cleavage of 0.12. U39C U130C A138G gave a self-cleavage of 1.39. Variant G40A A50G U143C has a self-cleavage of 1.09. For A42G G54U A129G, the self-cleavage was 1.3. With A42G A107U U119C C145U the self-cleavage was 0.73. For A42G A59U U134C, the self-cleavage was 0.7. Variant A42G C120A C128U has a self-cleavage of 0.97. For A43G A78G A92G A136G A138G, the self-cleavage was 0. Work on A42G A64U A140G yielded a self-cleavage of 0.59. In the case of U39C C68A U85C A129G A140G, the self-cleavage is reported as 0.05. Variant A43G A67G A79U U87A has a self-cleavage of 0. A42U U52C A141G gave a self-cleavage of 1.25. Work on G40A U102C U130C yielded a self-cleavage of 1.4. With A42C U62C U130C the self-cleavage was 0. With A43G A65U U108C U130C A142G the self-cleavage was 0. A42G U130C A140G showed a self-cleavage of 0.8. With U39C A94U A129U A141G the self-cleavage was 0.26. Variant A43G U45C U104C has a self-cleavage of 1.31. Work on A42G U45A U112C yielded a self-cleavage of 1.16. In the case of G41A U52A U87A, the self-cleavage is reported as 0.07. For A43G A69G U130C, the self-cleavage was 0. A42G A43U A59G showed a self-cleavage of 0.28. A42G A57G U130A showed a self-cleavage of 1.29. A42G U45C U119A showed a self-cleavage of 0. Work on A43G C71U A117G yielded a self-cleavage of 1.09. Work on A42G C56U A64U U96C U130C A138G yielded a self-cleavage of 0.06. Work on G40A A79G A140G yielded a self-cleavage of 0.62. A42G A124G U132C showed a self-cleavage of 0.74. A42G A59G U62C A64U U108C A136U U143A gave a self-cleavage of 0. For A43G A59G A64U A136G, the self-cleavage was 0.12. A43G A64G U119A A141G gave a self-cleavage of 0.27. Variant A43G U45C G54U has a self-cleavage of 0.31. Variant A42G A57U A94U A140G A141G has a self-cleavage of 0.02. With U39G U102C U115A the self-cleavage was 2.42. U39C C71U U134C A140G gave a self-cleavage of 0. A42U U46C C98U C118U gave a self-cleavage of 0.57. With A42G U62C U100A the self-cleavage was 0.07. Variant A43G A67G A121U has a self-cleavage of 0.64. A43G G49A A67U G114C gave a self-cleavage of 0.07. A43G U47G C110U U115A C128G gave a self-cleavage of 1.23. Work on A42U G74A A107C yielded a self-cleavage of 0.84. U39C G49A G74A U119C showed a self-cleavage of 0.98. With A43G A57G A140G the self-cleavage was 0.84. For A43G A57G G88U, the self-cleavage was 0.1. A42U U46C U100G showed a self-cleavage of 0.84. With A42G C95A U132A A138G the self-cleavage was 0.09. Variant G40U U112C A117G has a self-cleavage of 2.63. Work on A43G U46A A94U yielded a self-cleavage of 0.15. In the case of A43G A65C U81A A141G, the self-cleavage is reported as 0.04. For A43G A121U C128U A142C, the self-cleavage was 1.27. In the case of A42G U52A A64G A67U, the self-cleavage is reported as 0.05. In the case of G40A G53U A107G U130C, the self-cleavage is reported as 0.94. A43C C63U A69U U130C showed a self-cleavage of 0.06. For A42G A50G U62A A136G, the self-cleavage was 0.15. With A42G U46C U134C the self-cleavage was 2.43. In the case of A42U A69U U96A A142C, the self-cleavage is reported as 0. A43G A64U U85C C113A gave a self-cleavage of 0.09.
